# This is one part of the list. The energies were worked out here from pooled read counts, against the library average; single values are noisy.
# Target: T1, Pho4 (S. cerevisiae) (UniProt P07270)
# T1 sequence: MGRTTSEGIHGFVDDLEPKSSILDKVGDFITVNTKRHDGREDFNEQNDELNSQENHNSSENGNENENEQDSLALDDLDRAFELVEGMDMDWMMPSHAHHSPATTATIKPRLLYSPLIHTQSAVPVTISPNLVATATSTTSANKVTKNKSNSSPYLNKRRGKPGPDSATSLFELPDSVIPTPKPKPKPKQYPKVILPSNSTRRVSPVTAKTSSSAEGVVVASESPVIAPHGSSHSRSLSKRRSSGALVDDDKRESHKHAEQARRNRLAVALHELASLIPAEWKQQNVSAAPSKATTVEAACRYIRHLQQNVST
# Assay: relative binding free energy (BET-seq); higher = weaker binding
# Settings: reference: library average
row,Sequence,relative binding free energy [kcal/mol]
1,CGTGGCACGTGTCAGT,-0.13
2,GATTGCACGTGGTGTA,0.05
3,GTTCACACGTGGGCTA,0.1
4,CTTTGCACGTGGGTAA,-0.22
5,AGTTCCACGTGGGGTA,-0.13
6,GATGTCACGTGGGTTT,0.1
7,TCGGTCACGTGTGCGT,-0.04
8,TAGTACACGTGTTTTA,0.08
9,ATTTACACGTGTAGCT,0.12
10,TGAATCACGTGACGTG,0.36
11,GCTATCACGTGGGTTT,0.1
12,TTAGGCACGTGGCGGT,-0.1
13,GCGTTCACGTGGTTTG,0.26
14,GTTTTCACGTGGGCAC,0.26
15,GGAGACACGTGGCGGA,-0.1
16,TGTCGCACGTGGTTTA,-0.13
17,GATTTCACGTGGGACG,0.25
18,GGATTCACGTGGGTTG,0.21
19,TCGGGCACGTGGCGTG,-0.36
20,GGGAGCACGTGGGCGT,-0.16
21,GGTGGCACGTGTCAGT,-0.05
22,GGGGTCACGTGTCTAT,0.27
23,TGCTGCACGTGTAGAG,0.1
24,TTAGGCACGTGCTCGG,-0.21
25,TCGTTCACGTGCTAGG,0.28

row,Sequence,relative binding free energy [kcal/mol]
1,TGCGTCACGTGTCGTG,-0.06
2,GATGCCACGTGTGTGT,0.04
3,CTAGTCACGTGTTGGG,0.09
4,AGTTGCACGTGTGAGT,0.1
5,ATTATCACGTGGTTAA,-0.01
6,AGTGTCACGTGACGGG,0.26
7,TGAGGCACGTGGGTTT,-0.11
8,TTTGCCACGTGGTTAG,-0.09
9,TCTGTCACGTGGTTGT,0.08
10,TCGGTCACGTGGTGAA,0.1
11,TGGGGCACGTGACTAT,0.11
12,GGTGTCACGTGGGCGT,-0.03
13,TCGTTCACGTGTATCG,0.3
14,GAACGCACGTGTTGTT,-0.01
15,GGCTGCACGTGGGTAA,-0.12
16,GTAGTCACGTGGGACG,0.07
17,GGGTGCACGTGCGTCT,-0.09
18,TGAAGCACGTGATAGG,-0.08
19,GGGGGCACGTGACTTT,0.03
20,TGAGGCACGTGGCGCG,-0.23
21,CTGAACACGTGTATTT,0.15
22,CGGGCCACGTGGAAGG,0.02
23,AGGATCACGTGGTCTG,0.14
24,TACTTCACGTGTGTAA,0.21
25,GTTCGCACGTGGAGAT,0.1

row,Sequence,relative binding free energy [kcal/mol]
1,GATTACACGTGTGTGA,0.26
2,GATGCCACGTGTGGTA,-0.04
3,ATTCGCACGTGTATAT,-0.02
4,ATCGGCACGTGGAGGG,-0.08
5,GTTGGCACGTGGCGTG,-0.2
6,GTGGGCACGTGATGCA,0.06
7,ATTTGCACGTGTAGTC,0.24
8,AATTACACGTGTATGC,0.12
9,GGGACCACGTGGATGG,-0.08
10,TTGGACACGTGGATTT,0.07
11,TTCGGCACGTGGGGGG,-0.09
12,TGTGCCACGTGGTTGT,-0.11
13,ATCAGCACGTGTAGGT,-0.01
14,GGTGGCACGTGCGGTT,-0.02
15,AGTAGCACGTGACGTT,0.22
16,GGTGCCACGTGTTATT,0.14
17,TTTCGCACGTGCTTAT,-0.04
18,TGGTACACGTGGATTC,0.16
19,CATGTCACGTGAATGT,0.21
20,TACGTCACGTGAGGTG,0.28
21,CTAATCACGTGAGGTA,0.35
22,TGTGTCACGTGATCGA,0.02
23,AGGGACACGTGTGGAC,0.08
24,AAGGGCACGTGATCTG,-0.2
25,TAAAGCACGTGAGGGC,0.13

row,Sequence,relative binding free energy [kcal/mol]
1,GGAAGCACGTGGGTGA,-0.19
2,CAGGGCACGTGGCCGG,-0.27
3,ATAGGCACGTGTTATT,-0.22
4,TCGAGCACGTGGGTGA,-0.2
5,AAGAGCACGTGATATG,0.07
6,TAGCCCACGTGTGGGT,-0.01
7,GGTGTCACGTGACGGC,0.18
8,TGATTCACGTGGTGAC,0.26
9,ATTTGCACGTGCGTTA,-0.2
10,GTTCGCACGTGAGGCT,0.28
11,CATTGCACGTGGTGTC,0.07
12,GGATGCACGTGGGTTT,0
13,TACTGCACGTGTAGGT,0.01
14,AGGTGCACGTGTAGTA,0
15,ATTAGCACGTGGTTGG,-0.13
16,ATTTTCACGTGATGCG,0.31
17,ACGAGCACGTGTGTTT,-0.09
18,CTTAGCACGTGGTGCT,-0.05
19,TTTTGCACGTGATACG,0.08
20,GTTATCACGTGAGCAG,0.43
21,GGGGACACGTGTTAAT,0.08
22,TGGAACACGTGGCTTA,0
23,TCCGTCACGTGGGGTG,-0.04
24,TCGAGCACGTGAAGGG,0.1
25,GGTCGCACGTGTTATA,0.03

row,Sequence,relative binding free energy [kcal/mol]
1,CCATGCACGTGGGTGG,-0.23
2,CAATGCACGTGTGTTG,-0.07
3,TGATGCACGTGGGTTC,-0.04
4,TTAGTCACGTGGATTC,0.1
5,TCATTCACGTGTTATA,0.23
6,CTTAGCACGTGGAGGT,-0.08
7,TACGTCACGTGTAAGT,0.2
8,TTATGCACGTGATTAA,-0.14
9,GTGGGCACGTGTTGGT,0.05
10,TTCTGCACGTGGAAGG,0.18
11,GGCGACACGTGTGGCG,0.13
12,ATGTACACGTGAGGCT,0.14
13,GTAGGCACGTGGCGGG,-0.19
14,GACGGCACGTGAGGTA,0.36
15,GGTTGCACGTGTATAG,0.07
16,ACATGCACGTGTTGAG,-0.02
17,TTGGTCACGTGTCGCT,0.23
18,GTTATCACGTGTGATT,0.21
19,CATTACACGTGTTTGG,0.03
20,TTGTTCACGTGGAAGA,0.23
21,TACGTCACGTGTGTAT,0.07
22,CGGTTCACGTGGTGCA,0.12
23,TTTTACACGTGAGCGT,0.31
24,TGATCCACGTGGTGGA,-0.05
25,CTGGACACGTGAGAGT,0.21

row,Sequence,relative binding free energy [kcal/mol]
1,AGTTGCACGTGCAATG,0.04
2,TATTGCACGTGCATTG,-0.03
3,TTATGCACGTGTGTGA,0.09
4,GGGCTCACGTGCTGGG,0.13
5,TTACTCACGTGGATGT,0.06
6,TCGTACACGTGGTGTT,-0.06
7,TATTGCACGTGGCTTG,-0.14
8,ATTTACACGTGGGAGT,0.06
9,GCTGGCACGTGCATGT,-0.09
10,GGTATCACGTGGTTTT,0.15
11,AAAGTCACGTGTTTGG,-0.01
12,GTGTACACGTGTTTTC,0.07
13,AAGGACACGTGAGGTT,0.22
14,CAGGCCACGTGAGGGT,0.03
15,TCGTGCACGTGGGTTT,-0.08
16,TCGAACACGTGGGGTT,-0.18
17,ATGGTCACGTGGCAGT,0.06
18,GCGGACACGTGCGGGT,0.05
19,GTGTACACGTGAGGTG,0.19
20,TGCGCCACGTGCGGGG,-0.26
21,ATAGGCACGTGGATTT,-0.07
